# Experimental data reported in paper PMC5892938.
# This is one part of the list. At the low end of the ranking the order means little.
# Biological target: GST-SBP-SLBP (stem-loop binding protein) (UniProt Q14493)
# Test: targeted RNA Bind-n-Seq;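 also: DESeq read counts versus GST-SBP nonspecific binding control pulldown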
# Settings: RBNS binding buffer: 25 mM Tris pH 7.5, 150 mM KCl, 3 mM MgCl2, 0.1% Tween, 0.5 mg/mL BSA, 1 mM DTT; 27 nM protein, 750 pM RNA pool; temperature not stated; high values mean tight binding
row,Sequence,binding signal (log2 fold change)
1,GGUCACGUCUCAAUCAACUCAUCCUCCAGGGAAAGCCCUGGUAUAUUCAACAGCUCGCAGUCAAG,0.0173
2,GGUCACGUCUCAAUCAACUCUUCCUCAGGAGUUUCCUCCUGCAAACUCAACAGCUCGCAGUCAAG,0.173
3,GGUCACGUCUCAAUCAACUCUUCCCCCAGGGAAAGCCCUGGCUAACUCAACAGCUCGCAGUCAAG,-0.0482
4,GGUCACGUCUCAAUCAACUCAACUCCCAGGGAAAACCCUGGUAUUUUCAACAGCUCGCAGUCAAG,-0.0759
5,GGUCACGUCUCAAUCAACUCUUAAGAGGGGGGGAAAACCCCUUUACCCUCACCGUCAACAGCUCGCAGUCAAG,-0.111
6,GGUCACGUCUCAAUCAACUCUACUUCAGGAGUUUCCUCCUGUUUACUCAACAGCUCGCAGUCAAG,0.169
7,GGUCACGUCUCAAUCAACUCAUCCUCCAGGGAAAGCCCUGGCUAACUCAACAGCUCGCAGUCAAG,0.042
8,GGUCACGUCUCAAUCAACUCUACGCCAGGAGUUUUCUCCUGUUUUCUCAACAGCUCGCAGUCAAG,-0.138
9,GGUCACGUCUCAAUCAACUCACUAGAGGGGGGGAAAACCCCUUUGCCCUCCAAAUCAACAGCUCGCAGUCAAG,0.0344
10,GGUCACGUCUCAAUCAACUCUUUUUCAGGAGUUUCCUCCUGUUUUUUCAACAGCUCGCAGUCAAG,0.098
11,GGUCACGUCUCAAUCAACUCUAUCGAGGGGGGGAAAACCCCUUUACCCUCAAUUUCAACAGCUCGCAGUCAAG,-0.0147
12,GGUCACGUCUCAAUCAACUCUUUCCCCAGGGAAAGCCCUGGCAUUUUCAACAGCUCGCAGUCAAG,0.178
13,GGUCACGUCUCAAUCAACUCAUCGUCAGGAGUUUCCUCCUGCUAACUCAACAGCUCGCAGUCAAG,-0.0468
14,GGUCACGUCUCAAUCAACUCCAACGAGGGGGGGAAAACCCCUUUACCCUCAAUCUCAACAGCUCGCAGUCAAG,-0.24
15,GGUCACGUCUCAAUCAACUCAUCGUCCAGGGAAAGCCCUGGUUAUCUCAACAGCUCGCAGUCAAG,0.0909
16,GGUCACGUCUCAAUCAACUCUAACGAGGGGGGGAAAACCCCUUUACCCUCACCAUCAACAGCUCGCAGUCAAG,-0.237
17,GGUCACGUCUCAAUCAACUCUUCGUCCAGGGAAACCCCUGGUUUAUUCAACAGCUCGCAGUCAAG,-0.315
18,GGUCACGUCUCAAUCAACUCAACGCCAGGAGUUUCCUCCUGCUAAUUCAACAGCUCGCAGUCAAG,0.0297
19,GGUCACGUCUCAAUCAACUCUAUCCCAGGAGUUUCCUCCUGCUUAUUCAACAGCUCGCAGUCAAG,0.294
20,GGUCACGUCUCAAUCAACUCUUACGAGGGGGGGAAAACCCCUUUACCCUCUACAUCAACAGCUCGCAGUCAAG,-0.372
21,GGUCACGUCUCAAUCAACUCUAUUUCAGGAGUUUACUCCUGCAAUUUCAACAGCUCGCAGUCAAG,0.0985
22,GGUCACGUCUCAAUCAACUCUUCUUCAGGAGUUUACUCCUGUAUACUCAACAGCUCGCAGUCAAG,0.117
23,GGUCACGUCUCAAUCAACUCAUUUUCCAGGGAAAGCCCUGGUAUACUCAACAGCUCGCAGUCAAG,-0.0971
24,GGUCACGUCUCAAUCAACUCACACGAGGGGGGGAAAACCCCUUUACCCUCAGAAUCAACAGCUCGCAGUCAAG,0.0405
25,GGUCACGUCUCAAUCAACUCAAUUCCAGGAGUUUCCUCCUGCAUACUCAACAGCUCGCAGUCAAG,0.13

row,Sequence,binding signal (log2 fold change)
1,GGUCACGUCUCAAUCAACUCUUCGUCCAGGGAAAGCCCUGGCUUUUUCAACAGCUCGCAGUCAAG,-0.0885
2,GGUCACGUCUCAAUCAACUCCAUCGAGGGGGGGAAAACCCCUUUACCCUCAUUUUCAACAGCUCGCAGUCAAG,-0.135
3,GGUCACGUCUCAAUCAACUCCAACGAGGGGGGGAAAACCCCUUUACCCUCAUAUUCAACAGCUCGCAGUCAAG,-0.185
4,GGUCACGUCUCAAUCAACUCUUUCUCAGGAGUUUCCUCCUGUUAAUUCAACAGCUCGCAGUCAAG,-0.215
5,GGUCACGUCUCAAUCAACUCUACUCCCAGGGAAAUCCCUGGUAUUCUCAACAGCUCGCAGUCAAG,0.0166
6,GGUCACGUCUCAAUCAACUCUAUCUCAGGAGUUUUCUCCUGCUUUGUCAACAGCUCGCAGUCAAG,0.16
7,GGUCACGUCUCAAUCAACUCAUCUCCAGGAGUUUACUCCUGUAUUUUCAACAGCUCGCAGUCAAG,-0.131
8,GGUCACGUCUCAAUCAACUCACUAGAGGGGGGGAAAACCCCUUUACCCUCAUCCUCAACAGCUCGCAGUCAAG,-0.597
9,GGUCACGUCUCAAUCAACUCAACUUCCAGGGAAAUCCCUGGCUUUCUCAACAGCUCGCAGUCAAG,-0.259
10,GGUCACGUCUCAAUCAACUCCCUAGAGGGGGGGAAAACCCCUUUACCCUCAACUUCAACAGCUCGCAGUCAAG,0.159
11,GGUCACGUCUCAAUCAACUCAUCUUCAGGAGUUUACUCCUGUAUUUUCAACAGCUCGCAGUCAAG,0.0512
12,GGUCACGUCUCAAUCAACUCUUCCUCCAGGGAAAACCCUGGUUAAUUCAACAGCUCGCAGUCAAG,0.0786
13,GGUCACGUCUCAAUCAACUCUACUCCCAGGGAAAACCCUGGCAAACUCAACAGCUCGCAGUCAAG,-0.242
14,GGUCACGUCUCAAUCAACUCUAUCUCCAGGGAAACCCCUGGUUUAUUCAACAGCUCGCAGUCAAG,-0.173
15,GGUCACGUCUCAAUCAACUCUUCUUCAGGAGUUUCCUCCUGUUUAUUCAACAGCUCGCAGUCAAG,-0.136
16,GGUCACGUCUCAAUCAACUCUACUUCAGGAGUUUCCUCCUGCUUACUCAACAGCUCGCAGUCAAG,0.159
17,GGUCACGUCUCAAUCAACUCCUAAGAGGGGGGGAAAACCCCUUUACCCUCCGCAUCAACAGCUCGCAGUCAAG,0.313
18,GGUCACGUCUCAAUCAACUCAAAUGAGGGGGGGAAAACCCCUUUACCCUCCAAAUCAACAGCUCGCAGUCAAG,-0.28
19,GGUCACGUCUCAAUCAACUCUUCUUCCAGGGAAAUCCCUGGUUUUCUCAACAGCUCGCAGUCAAG,-0.0538
20,GGUCACGUCUCAAUCAACUCUAUCUCCAGGGAAACCCCUGGUAAUUUCAACAGCUCGCAGUCAAG,-0.175
21,GGUCACGUCUCAAUCAACUCUACUCCCAGGGAAACCCCUGGCAAUGUCAACAGCUCGCAGUCAAG,-0.0879
22,GGUCACGUCUCAAUCAACUCAUCCCCCAGGGAAAACCCUGGCUAAUUCAACAGCUCGCAGUCAAG,0.0372
23,GGUCACGUCUCAAUCAACUCUUUAGAGGGGGGGAAAACCCCUUUACCCUCAAAUUCAACAGCUCGCAGUCAAG,-0.1
24,GGUCACGUCUCAAUCAACUCAAUUUCAGGAGUUUCCUCCUGCAUAUUCAACAGCUCGCAGUCAAG,0.00152
25,GGUCACGUCUCAAUCAACUCGUCUUCAGGAGUUUACUCCUGCUAAUUCAACAGCUCGCAGUCAAG,-0.108

row,Sequence,binding signal (log2 fold change)
1,GGUCACGUCUCAAUCAACUCCAUGGAGGGGGGGAAAACCCCUUUACCCUCAAUCUCAACAGCUCGCAGUCAAG,-0.284
2,GGUCACGUCUCAAUCAACUCUACUUCCAGGGAAACCCCUGGCUAUGUCAACAGCUCGCAGUCAAG,0.0561
3,GGUCACGUCUCAAUCAACUCAUCGUCAGGAGUUUACUCCUGCAAAUUCAACAGCUCGCAGUCAAG,0.0232
4,GGUCACGUCUCAAUCAACUCAAAAGAGGGGGGGAAAACCCCUUUGCCCUCAACCUCAACAGCUCGCAGUCAAG,-0.355
5,GGUCACGUCUCAAUCAACUCUUUUCCCAGGGAAAGCCCUGGCUAAUUCAACAGCUCGCAGUCAAG,0.00424
6,GGUCACGUCUCAAUCAACUCAUCCCCCAGGGAAAGCCCUGGCUAUCUCAACAGCUCGCAGUCAAG,-0.118
7,GGUCACGUCUCAAUCAACUCAACGGCAGGAGUUUUCUCCUGGAAUUUCAACAGCUCGCAGUCAAG,0.0757
8,GGUCACGUCUCAAUCAACUCUAUCCCCAGGGAAACCCCUGGCAAAUUCAACAGCUCGCAGUCAAG,0.0448
9,GGUCACGUCUCAAUCAACUCAUCGUCCAGGGAAACCCCUGGCUAUUUCAACAGCUCGCAGUCAAG,-0.0812
10,GGUCACGUCUCAAUCAACUCAUUCCCCAGGGAAAGCCCUGGCAUUCUCAACAGCUCGCAGUCAAG,0.112
11,GGUCACGUCUCAAUCAACUCAAUCUCCAGGGAAACCCCUGGCAAACUCAACAGCUCGCAGUCAAG,-0.00103
12,GGUCACGUCUCAAUCAACUCCUUAGAGGGGGGGAAAACCCCUUUACCCUCAUCCUCAACAGCUCGCAGUCAAG,0.0591
13,GGUCACGUCUCAAUCAACUCUACUUCAGGAGUUUUCUCCUGUAAUUUCAACAGCUCGCAGUCAAG,0.0138
14,GGUCACGUCUCAAUCAACUCCGCAGAGGGGGGGAAAACCCCUUUACCCUCCACAUCAACAGCUCGCAGUCAAG,0.00824
15,GGUCACGUCUCAAUCAACUCUUCUCCCAGGGAAACCCCUGGCAUUUUCAACAGCUCGCAGUCAAG,-0.0695
16,GGUCACGUCUCAAUCAACUCAACUUCCAGGGAAAACCCUGGUAUACUCAACAGCUCGCAGUCAAG,0.373
17,GGUCACGUCUCAAUCAACUCCAAAGAGGGGGGGAAAACCCCUUUACCCUCAAUCUCAACAGCUCGCAGUCAAG,0.159
18,GGUCACGUCUCAAUCAACUCUAGUCCAGGAGUUUUCUCCUGUAAUUUCAACAGCUCGCAGUCAAG,-0.187
19,GGUCACGUCUCAAUCAACUCAAUUUCCAGGGAAAGCCCUGGUAUUUUCAACAGCUCGCAGUCAAG,0.121
20,GGUCACGUCUCAAUCAACUCUUCUUCAGGAGUUUACUCCUGCAAUUUCAACAGCUCGCAGUCAAG,0.057
21,GGUCACGUCUCAAUCAACUCUUUCCCAGGAGUUUUCUCCUGCAAAUUCAACAGCUCGCAGUCAAG,0.0902
22,GGUCACGUCUCAAUCAACUCUUCCCCAGGAGUUUACUCCUGCAUUUUCAACAGCUCGCAGUCAAG,0.302
23,GGUCACGUCUCAAUCAACUCAAAAGAGGGGGGGAAAACCCCUUUGCCCUCACAUUCAACAGCUCGCAGUCAAG,0.12
24,GGUCACGUCUCAAUCAACUCUACUUCCAGGGAAAGCCCUGGCUUAUUCAACAGCUCGCAGUCAAG,0.183
